Measured values published in PubChem BioAssay AID493208 (National Center for Advancing Translational Sciences (NCATS), 2011).
Hit rate of the full screen: of about 44,000 compounds, about 340 (0.77%) were called active. Not shown: some 5% with an inconclusive outcome. The call rests on the fitted dose curve; in most records, active means well fitted inhibition curve with a large enough effect; inconclusive means small, poorly fitted or top-dose-only effect; inactive means flat fitted curve, though single readings scatter. The list shows a part of the results.

Test: Acumen qHTS Assay for Inhibitors of the mTORC1 Signaling Pathway in MEF (Tsc2-/-, p53-/-) Cells: Sytravon;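 further: plate controls were DMSO for no effect and rapamycin for full effect; nearly all actives have a fitted effect of over 50% in size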
Conditions: phospho-rpS6 immunofluorescence/PI, 24 h; series mostly up to 38.3 µM; activity change, negative = inhibition: at the top concentration
Procedure, shortened: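 Cell-based qHTS: Tsc2-/- p53-/- MEF, 24 h cpd, 37 °C; fix/perm, anti-phospho-S6 Alexa-488 + PI; Acumen 488 nm scan; pS6/PI ratio, % positive cells; rapamycin 7.5 nM = inhibition ref; PI count = viability.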

Activity change, negative = inhibition, inactive:
COc1cc(C(=O)Nc2cc(C)ccc2OCc2cc(=O)n3cc(C)sc3n2)cc(OC)c1OC 5.17%
Cc1ccccc1CS(=O)(=O)Cc1ccc(C(=O)NCCc2ccccc2)o1 7.91%
CCOC(=O)c1ccc(Nc2c(-c3ccc(O)cc3)nc3nc[nH]n23)cc1 -8.59%
Cc1ccc(NC(=O)CSc2nc3c(c(=O)[nH]2)CN(Cc2ccc4c(c2)OCO4)CC3)cc1C -0.506%
Cn1c(=O)c2c(SCC(=O)NCc3ccco3)nc(-c3ccccc3Cl)nc2n(C)c1=O 6.42%
CCOC(=O)c1ccc(NC(=O)c2oc3ccc4c(c3c2C)C(=O)CC(C)(CC)O4)cc1 (stereo not given) -5.74%
CCOC(=O)C1CCCN(c2ncnc3c2cnn3-c2ccc(C)c(Cl)c2)C1 (stereo not given) 3.92%
CC(=O)Nc1c(C)nn(-c2ccccc2)c1N1CCC(C(=O)Nc2cc(Cl)ccc2C)CC1 -6.24%
CCc1ccccc1NC(=O)c1cc(S(=O)(=O)NCCc2ccc(OC)c(OC)c2)ccc1F 0.709%
Cc1nc2c(-c3ccccc3)c(C)nn2c(C)c1CCC(=O)NCc1cccc(Cl)c1 1.29%
CCOc1ccc(NC(=O)C(C)Sc2nnc3cc(C)c4ccccc4n23)cc1 (stereo not given) -11.6%
CCCOc1ccc(C2c3c(-c4ccccc4O)n[nH]c3C(=O)N2Cc2ccncc2)cc1OCC (stereo not given) -1.06%
Cc1cccc(NC(=O)C(=O)NCC(c2cccnc2)N2CCOCC2)c1 (stereo not given) -5.94%
COc1ccc(C)cc1NC(=O)C(=O)NCCc1csc(-c2ccc(C)cc2)n1 -3.8%
CCOC(=O)c1c(C)c(C(=O)NCCc2ccc(OC)cc2)c(C)n1C -7.25%
Cc1cccc(CNC(=O)c2cnc3sc(N4CCCCC4)nn3c2=O)c1 8.89%
CCc1nn(CC(=O)Nc2cccc(C)c2C)c(=O)c2cc3sccc3n12 0.462%
Cc1ccc(CCNC(=O)C2CCCN(Cc3nc(-c4cccc(Cl)c4)oc3C)C2)cc1 (stereo not given) 0.815%
CN(C(=O)CSc1cn(CC(=O)N2CCCCC2)c2ccccc12)c1ccccc1 -5.15%
COc1ccc(/C=C/c2nc(C#N)c(N3CCN(c4ccccc4)CC3)o2)cc1OC 1.13%
O=C(Cc1ccc(F)cc1)N1CCC(c2nc3c(nnn3Cc3ccc(Cl)cc3)c(=O)[nH]2)CC1 -17.6%
COc1ccc(-c2noc(C3CC(=O)N(c4cc(C)cc(C)c4)C3)n2)cc1 (stereo not given) -16.6%
CN1CCN(CCCNC(=O)c2cnn(-c3ccccc3)c2C2CCN(C(=O)OC(C)(C)C)CC2)CC1 -0.0346%
CCC(C)NC(=O)c1ccc2c(c1)N(Cc1ccccc1)C(=O)c1ccccc1S2(=O)=O (stereo not given) -9.68%
CCC(Oc1ccccc1)C(=O)Nc1ccccc1OCc1cc(=O)n2ccccc2n1 (stereo not given) 16.2%
CC1=C(C(=O)Nc2ccc(Cl)cc2)C(C(C)C)n2nc(SCc3cccc(C)c3)nc2N1 (stereo not given) -4.81%
Cc1c2cnn(-c3ccccc3)c(=O)c2c(C)n1CCCC(=O)Nc1ccc(F)cc1F -2.11%
CCCc1nnc(NC(=O)c2nc(S(=O)(=O)Cc3ccc(C)cc3)ncc2Cl)s1 -18%
O=C(c1ccc2c(Cl)c3c(nc2c1)CCCC3)N1CCN(c2ccccc2)CC1 -0.697%
CC(C)(C)C1CCc2onc(C(=O)Nc3sc4c(c3C(N)=O)CCCC4)c2C1 (stereo not given) 0.584%
NC(=O)c1cc(S(=O)(=O)NCC2CCC(C(=O)Nc3cccc(Cl)c3)CC2)cs1 (stereo not given) -3.13%
Cc1c(Cl)cccc1NC(=O)CCS(=O)(=O)c1ccc(Br)s1 16%
Cc1ccc(NC(=O)CSc2nc3ccccc3c3nc(CCn4c(C)nc5ccccc54)nn23)cc1F -7.57%
COCCNC(=O)c1ccc2c(c1)N(Cc1cccc(Cl)c1)C(=O)c1ccccc1S2=O (stereo not given) -11.2%
Cc1ccc(C)c(NC(=O)CCNS(=O)(=O)c2ccc3c(c2)CCCC(=O)N3)c1 7.93%
CN(C(=O)CSc1nnc2[nH]c(=O)cc(-c3ccccc3)n12)c1ccccc1 -1.65%
CCOC(=O)c1cc(-c2ccccc2)n(CC(=O)NCc2ccccc2OC)c1C -0.597%
Fc1ccc(CNc2ncnc3c2c(-c2ccccc2)cn3-c2ccccc2)cc1 -16.8%
Cn1c(=O)n(C)c2cc(S(=O)(=O)Nc3ccccc3C(=O)O)ccc21 -16.4%
O=C(Nc1ccc(F)c(F)c1)C1CCCN(S(=O)(=O)c2cccc3nonc23)C1 (stereo not given) -1.53%
Cc1ccc(C)c(N2CCN(C(=O)CN3C(=O)CSc4c3c(C)nn4-c3ccccc3)CC2)c1 -4.21%
COc1ccc(N(C)C(=O)NCc2noc3ccc(C)cc23)c(OC)c1 1.5%
CCCNC(=O)Nc1cc(C(=O)NCc2cccc(OCC)c2)ccc1N1CCCC1 1.98%
COc1ccccc1NC(=O)CSCc1cc(=O)c2c(C)cc(C)cc2[nH]1 0%
COc1ccc(C(=O)CCC(=O)Nc2ccccc2C)cc1 -3.04%
Cc1cccc(NC(=O)C2CCCN(S(=O)(=O)c3c(C)noc3/C=C/N(C)C)C2)c1C (stereo not given) 0.573%
CCC(Sc1nncn2c1cc1sccc12)C(=O)Nc1cccc(OC)c1 (stereo not given) 0%
CC(C)(C)C1CCc2nc(NC(=O)Cc3ccc(Cl)cc3)sc2C1 (stereo not given) 0.175%
Cc1ccc(CN2CCN(C3CCN(C(=O)OC(C)(C)C)CC3)C(=O)C2=O)cc1 3.04%
CC(C)(C)c1ccc(C(=O)Nc2ccccc2C(=O)OCc2cc(=O)n3ccsc3n2)cc1 8.15%
Cc1cc2nc3c(=O)n(C)c(=O)n(C)c3nc2cc1N=CN(C)C 0.163%
CCOC(=O)CC(NC(=O)Cn1nnc(-c2ccccc2C)n1)c1ccc(OC)cc1 (stereo not given) 2.08%
CCC(=O)N1CCc2cc(Br)cc(S(=O)(=O)CCC(=O)Nc3ccccc3C)c21 -2.96%
COc1ccc(-c2nc(SCC(=O)NCCCc3ccccc3)n[nH]2)cc1 9.51%
COc1ccc(NC(=O)CCc2c(C)nn(-c3ccc(N4CCOCC4)nn3)c2C)cc1Cl -13.3%
Cc1ccc2occ(CC(=O)Nc3ccc(S(N)(=O)=O)cc3)c2c1 -14.3%
CCN(CC)CCCNC(=O)c1oc2c(c1C)-c1nn(Cc3ccc(Cl)cc3)cc1CC2 3.94%
Cc1cccc(-c2noc(C3CC(=O)N(c4ccc5c(c4)OCCO5)C3)n2)c1 (stereo not given) -1.81%
Cc1ccc(N(CC(=O)NC(C)c2ccccc2)S(=O)(=O)c2c(C)noc2C)cc1 (stereo not given) -6.86%
COc1ccc(NC(=O)Cn2c(C)c3cnn(-c4ccccc4)c(=O)c3c2C)c(OC)c1 0.286%
CCc1ccc(C(=O)c2cn(CC(=O)Nc3ccc(F)cc3)c3cc4c(cc3c2=O)OCO4)cc1 -14.9%
Cc1cc(OCC(=O)Nc2sc3c(c2C(N)=O)CCCC3)ccc1C(C)C 16.2%
COc1cc(C(=O)Nc2cc3c(cc2C)n(C)c(=O)c(=O)n3C)cc(OC)c1OC -5.51%
COc1ccccc1-c1noc(-c2ccc(N3CCC(C)CC3)c([N+](=O)[O-])c2)n1 -0.468%
CCC(=O)N1CCc2cc(S(=O)(=O)NC(Cc3ccccc3)C(=O)Nc3ccc(C)cc3)ccc21 (stereo not given) -4.38%
Cc1ccc(NC(=O)c2sc3nc(-c4cc5ccccc5oc4=O)[nH]c(=O)c3c2C)c(C)c1 1.16%
O=C(CC1Sc2ccc(C(F)(F)F)cc2NC1=O)Nc1ccc(Cl)c(C(F)(F)F)c1 (stereo not given) -11.7%
CCOc1ccc(-c2cc(OC(=O)c3ccc(F)cc3)c3c(C)oc(C)c3c(=O)c2)cc1 3.13%
CCCc1cc(=O)[nH]c(Nc2cccc(Cl)c2Cl)n1 -3.08%
CCOc1ccc(-n2c(SCc3ccc(C(=O)OC)o3)nc3c([nH]c4ccccc43)c2=O)cc1 -2.48%
COc1cc(C(=O)Nc2cc(C)ccc2OCc2cc(=O)n3c(C)csc3n2)cc(OC)c1OC 14.7%
CCOC(=O)C1CCCN(S(=O)(=O)c2ccc3c(c2)CCCN3C(C)=O)C1 (stereo not given) -24.5%
COc1ccc(CCNC(=O)c2cc3c(-c4ccccc4F)nn(C)c3s2)c(OC)c1 -29.5%
O=C(Nc1ccc(Br)cc1F)c1cc(S(=O)(=O)NCc2ccc(F)cc2)ccc1F -2.2%
COc1ccc(NC(=O)c2cc3c(s2)-c2c(C)cccc2OC3)c(OC)c1 0.108%
CCCCNc1nc(Oc2ccc(=O)[nH]n2)nc(N(C)C)n1 4.08%
C=C(C)Cn1c(=O)c2c(nc3n2CCN3c2ccc(CC)cc2)n(C)c1=O 6.11%
Fc1ccc(-n2cc(-c3ccccc3)c3c(NC4CCCCC4)ncnc32)cc1 8.42%
CCOC(=O)c1cccc(NC(=O)c2cc3c(=O)n(Cc4ccccc4)ccc3nc2C)c1 -3.23%
CCc1nn(CC(=O)NCCCN(CC)CC)c(=O)c2cc3sc(C)cc3n12 -16.1%
CSc1ncc(C(=O)Nc2ccccc2C(=O)c2ccccc2)c(C(F)(F)F)n1 0%
O=C(CCC1N=C2c3ccccc3N=C(SCc3ccccc3F)N2C1=O)NC1CCCCC1 (stereo not given) -1.69%
CCOc1cc(C2C(C(=O)OC)=C(C)NC3=C2C(=O)c2ccccc23)cc(Cl)c1O (stereo not given) -15.8%
Cc1ccc(-n2ncc3c(NCCCN4CCOCC4)ncnc32)cc1 7.33%
COc1cccc(-n2c(=O)c3c(C)c(C(=O)N(C)C)sc3n(Cc3ccc(F)cc3Cl)c2=O)c1 0.566%
Fc1ccc(-c2nc(Nc3cccc(Cl)c3)nc3c2COc2ccccc2-3)cc1 4.39%
COc1ccc(NC(=O)CN(Cc2ccccc2)S(=O)(=O)c2ccc(C)cc2)cc1Cl 15.8%
CCn1c2ccccc2c2nnc(N3CCN(c4cc(C)ccc4C)CC3)nc21 -9.56%
COc1ccc(N2CCN(S(=O)(=O)c3ccc4c(c3)CC(C)N4C(C)=O)CC2)cc1 (stereo not given) -9.22%
CCOc1ccccc1NC(=O)c1cc2c(Cl)nc3ccccc3c2s1 -0.231%
COc1ccc(NC(=O)C2Cc3ccccc3N2C(=O)c2ccccc2)c(OC)c1 (stereo not given) 10.1%
CC1=C(C(=O)OC2CCCCCC2)C(c2c(F)cccc2Cl)CC(=O)N1 (stereo not given) -7.26%
Cc1ccc(Cl)cc1NC(=O)c1oc2c(c1C)-c1[nH]ncc1CC2 -12.2%
COc1ccc(N(Cc2cccs2)C(=O)COc2cccc(Cl)c2)cc1 -1.74%
CCN(CCCNC(=O)c1c(C)oc2ncn(CC(C)C)c(=O)c12)Cc1ccccc1 -8.11%
